Measured values from PMC12040169 (PLOS Biology, 2025).
The list shows a part of the results.

tested on: T1, C. trachomatis L2/434/Bu expressing GFP (CTL2-GFP); parameters: species or system HeLa; C. trachomatis total inclusion area by high-content imaging, normalised to DMSO; settings: total inclusion area; 28.5 h, 10 µM; inhibitor
T1 construct: L2/434/Bu GFP intracellular growth in HeLa cells
Summary of the method: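 High-content images of fixed, Hoechst-stained infected cultures supply inclusion area and count (growth) plus nuclei number (viability), complementing bulk GFP/resorufin fluorescence. MIC determination is unchanged from the primary assay.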

SMILES	% of control remaining
COc1ccc(CCNC(=O)CSc2nc(N)c3c4c(sc3n2)CCCC4)cc1 [CBK095784]	73.0226
CCN(c1ccccc1)S(=O)(=O)c1ccc(C(=O)NC(C)c2ccc3c(c2)OCCO3)cc1 (stereo not shown) [CBK296945]	91.1256
O=C(Cc1ccccc1)N1C[C@@H]2CCCCN(CC3CC3)[C@@H]2C1 [CBK285497]	104.615
COc1ccccc1-c1coc2cc(OC(=O)c3c(C)oc4ccc(OC(C)=O)cc34)ccc2c1=O [CBK265191]	98.1289
COc1cccc(CNc2nccnc2-c2ccoc2)c1OC [CBK036782]	152.376
CCCS(=O)(=O)NC1CC(C)(C)Cc2c1cnn2-c1ccc(F)cc1 (stereo not shown) [CBK306770]	74.0168
O=C(O)CCc1nn2c3ccccc3nc2n(-c2ccccc2)c1=O [CBK267520]	109.974
O=C(CC1CC1)Nc1snnc1-c1ccc(Cl)cc1 [CBK153239]	93.3256
O=C(NCc1ccc(Cl)c(Cl)c1)N1CCN(Cc2ccccc2)CC1 [CBK155624]	85.2378
CC(C)NC(=O)c1ccc(Cl)cc1 [CBK015665]	57.8628
COc1ccc(-c2cc(C(=O)Nc3ccc(O)cc3)cnc2-c2ccc(F)cc2)cc1 [CBK038026]	99.9106
Cc1ccc(Cc2cnc(NC(=O)C3CCCO3)s2)cc1Cl (stereo not shown) [CBK305013]	119.549
Cc1ccc(CN2CCCC3(C/C=C/COc4ccccc4C(=O)NCCNC3=O)C2)cn1 (stereo not shown) [CBK292022]	113.55
CS(=O)(=O)c1ccc(-c2ccc(COC3CCN(C(=O)CCCc4ccc(F)cc4)CC3)cn2)cc1 [CBK162229T]	102.367
COc1ccc(C(NC(=O)c2cc(C)oc2CN2CCCC2)c2ccccc2)cc1 (stereo not shown) [CBK285573]	76.423
c1ccc(CNc2nc(-c3ccco3)cn3ccnc23)nc1 [CBK037482]	66.6169
C=C(C)Cn1c(SC(C)C)nnc1-c1ccccc1OC [CBK200072]	90.1172
COc1ccc(-c2cc(C(=O)OCc3ccccn3)c3ccccc3n2)cc1 [CBK296114]	98.3014
CN(Cc1ccccc1)c1nc2ccccn2c(=O)c1/C=C1/SC(=S)N(CCc2ccccc2)C1=O [CBK263839]	81.5561
O=S(=O)(c1cccc(C(F)(F)F)c1)n1ccc2c(CN3CCCC3)cccc21 [CBK116168T]	78.0632
CN(C)c1ncc(-c2ccc(F)cc2)c(C2CCCN2C(=O)c2nccc3ccccc23)n1 (stereo not shown) [CBK286086]	116.912
CC(=O)NC(c1ccccn1)C1CCN(C(=O)C2CCCCC2)CC1 (stereo not shown) [CBK285049]	112.685
Cc1cc2nc(NCC3CCCO3)c3ccccc3n2n1 (stereo not shown) [CBK305871]	57.1731
CCC(C)(C)N1CC(=O)N=C1NCCc1ccc(S(N)(=O)=O)cc1 [CBK007750]	63.7257
CC(C)(C)C(=O)N1CC[C@H]2NC(=O)N(c3ccc(F)cc3)C(=O)[C@H]21 [CBK289328]	116.463
Cc1ccccc1CCNC(=O)c1cccn(CC(=O)N(C)C2CCCCC2)c1=O [CBK286028]	119.643
Cc1cc2c(o1)c1cnn(CC(=O)N3CCCC3)c(=O)c1n2C [CBK284223]	52.7685

SMILES	% of control remaining
Cc1no[n+]([O-])c1COc1cccc(/C=C2\N=C(c3ccccc3)OC2=O)c1 [CBK263454]	91.4307
O=C(NCCCc1ccc(F)cc1)c1cccc(-n2cnnc2)c1 [CBK282713]	113.704
Cc1ccc(N2C(=O)c3[nH]nc(C)c3C2c2ccc(O)cc2)cc1 (stereo not shown) [CBK287915]	47.3283
CC(=O)Nc1ccc(NC(=O)c2cnc(-c3ccc(F)cc3)c(-c3ccco3)c2)cc1 [CBK037977]	122.107
O=C(CSc1ncccn1)Nc1cccc(Cl)c1 [CBK058217]	95.4615
CCOc1ccccc1-c1ccccc1NC(=O)c1nc2ccccc2n(C)c1=O [CBK285855]	112.065
COc1ccccc1-c1ncc(OCC(F)(F)F)nc1NC(=O)c1ccco1 [CBK145277]	70.758
N#Cc1ccsc1NC(=O)CN1CCC(CNc2ccccn2)C1 (stereo not shown) [CBK306117]	40.9068
Cc1noc(C)c1CC(=O)N1CCc2[nH]c3ccccc3c2C1 [CBK281848]	110.447
CCCc1c(C(=O)NCC(C)(C)CN(C)C)cnn1-c1cc(Cl)cc(Cl)c1 [CBK107381]	95.3985
O=C(/C=C/c1ccccc1)N/C(=C/c1ccccc1)C(=O)Nc1ccc2ccccc2c1 [CBK265023]	88.8353
CC(C)c1nc2c(n1C)CCN(Cc1cc(=O)n3ccccc3n1)C2 [CBK305061]	79.4007
O=C(NCc1ccc(-c2nc3ncccc3o2)cc1)c1ccc(F)cc1 [CBK270182]	84.295
NC(=O)CSc1nnc(NC(=O)c2ccccc2Cl)s1 [CBK287629]	104.783
CN(C)CCN1C(=O)C(O)=C(C(=O)c2ccc(S(=O)(=O)N3CCOCC3)cc2)C1c1ccc(Br)cc1 (stereo not shown) [CBK264693]	96.1134
Cc1ncc(CNC(=O)C2CC2)c(-c2cn(C)c3ccccc23)n1 [CBK283366]	90.2099
COc1cccc(Nc2cc(-c3ccc(CC(C)C)cc3)ncn2)c1 [CBK090745]	156.397
Cc1cc(S(=O)(=O)NCc2ccccc2)ccc1OCC(=O)N1CCN(C)CC1 [CBK268274]	82.538
O=C(Nc1ccc(N2CCCC2)c(F)c1)C1CC(=O)N(C2CC2)C1 (stereo not shown) [CBK281461]	106.674
O=C1C=C(O)CC(CCc2ccc(F)cc2)(CCc2ccc(F)cc2)O1 [CBK008148]	110.134
Cc1ccc(-c2ccccc2CC2(C(=O)Nc3ccc(C(N)=O)cc3)CCOCC2)c(C)c1 [CBK286422]	104.047
CCCn1nnn(-c2cc(OCCOCC)c(Cl)cc2Cl)c1=O [CBK026016]	78.1339
COc1cc(-c2nc3ncccc3cc2NC(=O)C(C)C)cc(OC)c1OC [CBK073661]	94.2202
O=S(=O)(c1ccc(N2CCNCC2)cc1)n1ccc2ccc(Br)cc21 [CBK034034C]	8.541
c1cncc(COc2cncc(N3CCCC3)n2)c1 [CBK115892]	100.364
CCN1CCN(C(=O)c2nccnc2C(=O)O)CC1 [CBK286718]	77.0796
Sc1nnc(-c2cccc(Br)c2)o1 [CBK288432]	60.7368

SMILES	% of control remaining
CN(C)CCCN(Cc1ccco1)Cc1c[nH]nc1-c1cccs1 [CBK283198]	54.3826
CC(=O)Nc1ccc(OC(=O)CSc2nc(C)cc(-c3ccccc3)n2)cc1 [CBK268754]	116.464
CN(CCC#N)S(=O)(=O)c1ccc(Cl)c(Cl)c1 [CBK045396]	117.343
Cn1c(=O)c2c(nc(CN3CCN(Cc4ccccc4)CC3)n2CCCc2ccccc2)n(C)c1=O [CBK269582]	105.702
Cc1ccc(S(=O)(=O)N(C)CC(=O)Nc2ncc(C(F)(F)F)cc2Cl)cc1 [CBK266729]	116.608
Cc1cc(C)n2nc(CC(=O)N3CCCC3c3ccccn3)nc2n1 (stereo not shown) [CBK304408]	61.4334
CC(C)(C)NCC(O)c1ccc(O)c2c1C1CCC2CC1 (stereo not shown) [CBK013269C]	22.9747
O=S(=O)(Cc1ccccc1)c1cc2c(N3CCNCC3)nccc2s1 [CBK200017C]	87.1119
CCOC(NC(=O)Nc1ccc(Br)cc1)(C(F)(F)F)C(F)(F)F [CBK027208]	97.1795
CCc1c(C)nc2c(NC(C)=O)cccc2c1SCCC(=O)O [CBK159594T]	91.5267
O=C1Nc2cc(C(F)(F)F)ccc2N2CCCC12 (stereo not shown) [CBK288125]	88.1535
O=C1CCCN1c1ccc(CN2CCC(O)(c3ccccc3)C2)cc1 (stereo not shown) [CBK282808]	100.169
CCN1CCC[C@@H]1CNC(=O)c1n[nH]c2c1CCC2 [CBK174628]	38.1242
O=C(CSc1nnc(-c2ccco2)n1Cc1ccco1)c1ccc(-c2ccccc2)cc1 [CBK267555]	123.361
O=C(NC1=NCCS1)c1cc2ccccc2o1 [CBK058927]	64.8411
CC1=CC(C)C(CNCCN2CCNCC2)C(C)C1 (stereo not shown) [CBK262832]	78.9693
COc1cccc(CNc2nccc(-n3nc(C)cc3C)n2)c1 [CBK288612]	125.414
COc1ccccc1-c1cn2ccnc2c(N(C)CCN(C)C)n1 [CBK066156]	122.381
O=C(Nc1ccc(F)cc1)c1[nH]c2ccccc2c1NS(=O)(=O)c1ccc(C(F)(F)F)cc1[N+](=O)[O-] [CBK050090]	91.6734
CCC(Oc1ccccc1)C(=O)Nc1ccccc1-c1ccccc1 (stereo not shown) [CBK266031]	64.0747
COc1ccccc1NC(=O)c1ccc(-c2nnc(-c3ccccc3)o2)cc1 [CBK266533]	113.521
O=C(CC(C(=O)O)n1cnc([N+](=O)[O-])n1)c1ccc(Br)cc1 (stereo not shown) [CBK267524]	106.516
Cn1cc(C(O)CNC(=O)NCCc2csc3ccccc23)cn1 (stereo not shown) [CBK305219]	54.7024
CC(C)(C)NC(=O)CN1CCC(c2ccccc2F)CC1 [CBK283499]	118.887
COc1ccc(-n2c(SCC(=O)O)nnc2-c2cccs2)cc1 [CBK265636]	91.36
